According to PubChem BioAssay AID2101 (National Center for Advancing Translational Sciences (NCATS), 2009):
Out of some 330,000 compounds screened, about 300 (0.091%) were called active. This list was built around the results that the source calls inconclusive (neither active nor inactive); the mix of calls is not that of the screen. Calls come from the whole dose curve; as a rule, active = well fitted inhibition curve with a large enough effect; inconclusive = small, poorly fitted or top-dose-only effect, or effect the other way, or another doubt; inactive = no such curve, though single readings can be large or run the other way. No potency is given beside an inconclusive call; the fits are too rough.

molecular target: Lysosomal acid glucosylceramidase (Homo sapiens) (UniProt P04062); experiment: qHTS Assay for Inhibitors and Activators of N370S glucocerebrosidase as a Potential Chaperone Treatment of Gaucher Disease; conditions: N370S GC spleen homogenate, 4MU-glucoside fluorescence; series mostly up to 59.4 µM
Potency is the fitted concentration of half-maximal effect.

| SMILES | Potency |
| --- | --- |
| CCC1=C(OC(=O)N(CC)CC)N2C(=O)OC(=NCCc3c[nH]c4ccccc34)[C@]2(C)[C@H]2C1=CC[C@H]1C(=O)N(C)C(=O)[C@H]12 | inconclusive [inhibitor, single point] |
| COC(=O)C1=CN(CC2CCCO2)C=C(C(=O)OC)C1c1cccc(O)c1 (stereo not drawn) | inconclusive [activator, single point] |
| N#C/C(=C\c1ccc(O)c(O)c1)C(=O)NCc1ccccc1 | inconclusive [inhibitor, single point] |
| Cc1cc(N(C)Cc2ccccc2)nc2cc(O)ccc12 | inconclusive [activator, partial curve] |
| O=Cc1ccc(O)c2ncccc12 | inconclusive [activator, single point] |
| C/C(=C\C(=O)c1cccnc1)Nc1ccc(O)cc1 | inactive |
| COc1ccc2c(c1)CCCN2C(N)=Nc1ccc(Cl)cc1 | inconclusive [inhibitor, partial curve] |
| COC(=O)Nc1ccc2c(c1)ncn2C1CCCCC1 | inactive |
| O=C(C1=C[C@@H](c2ccccc2)C[C@@H](OCc2ccc(CO)cc2)O1)N1CCCCCCC1 | inconclusive [activator, partial curve] |
| Cc1ccc(C)c(N(CC(=O)NC2CCCC2)C(=O)CNC(=O)c2cccs2)c1 | inconclusive [inhibitor, partial curve] |
| N#CC(=C(\N)Sc1ccccc1N)/C(C#N)=C(/N)Sc1ccccc1N | inactive |
| O=c1oc2ccccc2c(NC2CCCCC2)c1NS(=O)(=O)c1ccc(Br)cc1 | inactive |
| COc1ccccc1/C=C1/SC(=S)N(C(C)C(=O)NC2C=CS(=O)(=O)C2)C1=O (stereo not drawn) | inconclusive [inhibitor, partial curve] |
| OCCNc1nc(NCc2ccccc2)c2ccccc2n1 | inconclusive [activator, partial curve] |
| Cc1ccccc1N(C(=O)c1snc(C(N)=O)c1N)C(C)C(=O)NC1CCCCC1 (stereo not drawn) | inconclusive [activator, partial curve] |
| COc1ccccc1NS(=O)(=O)c1cc(C(=O)NCC(c2cccs2)N2CCOCC2)ccc1C (stereo not drawn) | inconclusive [inhibitor, partial curve, poor fit] |
| COc1ccc(C(=O)Nc2ccc(N3CCN(C(=O)c4cccs4)CC3)cc2)cc1Br | inconclusive [inhibitor, full curve, poor fit] |
| N#Cc1c(N)n(-c2cccc(C(=O)O)c2)c2nc3ccccc3nc12 | inconclusive [activator, single point] |
